Results published in PubChem BioAssay AID1347073 (National Center for Advancing Translational Sciences (NCATS), 2019).
Hit rate of the full screen: of about 45,000 compounds, about 200 (0.44%) were called active. About 7% were inconclusive and are not listed. The call rests on the fitted dose curve; in most records, active means well fitted activation curve with a large enough effect; inconclusive means small, poorly fitted or top-dose-only effect; inactive means no such curve, though single readings can be large or run the other way. Some of the results follow.

test: qHTS of TDP-43 Inhibitors: NCGC Sytravon Library Screen; details: yeast TDP-43 toxicity rescue, BacTiter-Glo growth, 24 h; series mostly up to 46.1 µM; growth rescue (activation): at the top concentration; further: 0% is about no effect; nearly all actives have a fitted effect of over 55% in size
Method in brief: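 TDP-43-expressing yeast, pregrown in raffinose, seeded at OD600 0.02 in galactose medium with compound for 24 hr at 30 deg C. Growth read by BacTiter-Glo luminescence, so rescue of toxicity appears as activation.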

Structure (SMILES) | growth rescue (activation)
COCCNc1nc2cc(-c3ccsc3)sc2c(=O)n1C | inactive: 21.2%
CCN(CC(=O)Nc1ccc(C)c(F)c1)CC(=O)NC(C)(C)C | inactive: -3.6%
COc1cc(C(=O)Nc2ccc(S(=O)(=O)Nc3nccc(C)n3)cc2)c([N+](=O)[O-])cc1OC | inactive: -4.66%
Clc1ccc(C[n+]2cc(-c3ccccc3)n3c2CCC3)cc1Cl | inactive: -22.7%
CCOc1ccc(/C=C2\SC(=S)NC2=O)cc1OC | inactive: 5.58%
COc1ccc(C(O)c2nc(-c3cccc(NC(C)=O)c3)cs2)cc1 (configuration not stated) | inactive: -1.05%
CCC(=O)OCCNc1cc(Sc2nc3ccccc3[nH]2)c2nonc2c1[N+](=O)[O-] | inactive: -21.4%
CCCc1nc(NCc2ccco2)c(C#N)c2c1COC(C)(C)C2 | inactive: -13%
COc1ccc(CCNC(=O)c2cc3c(=O)n4cccc(C)c4nc3s2)cc1OC | inactive: 0.974%
CCC1=NN2C(=N)/C(=C\c3ccc(SCc4ccco4)o3)C(=O)N=C2S1 | inactive: 12.7%
COc1cc(/C=N\NC(=O)CNC(=O)C(c2ccccc2)c2ccccc2)ccc1O | inactive: 11.7%
O=C(c1cn(-c2ccccc2)nc1-c1ccccc1)N1CCN(c2ccccn2)CC1 | inactive: 14.9%
CCn1nc(C)c(CNC(=O)CCc2nnc(Cc3c[nH]c4ccccc34)o2)c1C | inactive: -6.13%
Cc1ccc(/C=C/C(=O)Nc2ccc(N(C)C)cc2)o1 | inactive: 0.323%
CN(C)c1ccc(NC(=O)Cc2ccccc2)c2ccccc12 | inactive: -0.035%
COC(=O)c1ccc(Cl)c(S(=O)(=O)N2CCCC2)c1 | inactive: 2.77%
N#CCCNc1c(Cl)cc(Cl)cc1C(=O)O | inactive: 0.384%
O=C(O)COc1cnc2ccccc2n1 | inactive: -25.2%
COc1ccc(CC(N)c2csc(NC(=O)Nc3ccccc3Cc3ccccc3)n2)cc1 (configuration not stated) | inactive: 4.7%
Cc1ccc(-n2ncc3c(=O)[nH]c(SCC(=O)N4CC(=O)Nc5ccccc54)nc32)cc1 | inactive: 6.23%
CN(C)S(=O)(=O)c1ccc(Cl)c(C(=O)Nc2cccc3ncccc23)c1 | inactive: 8.92%
CC(=O)C1=C(O)C(=O)N(C)C1c1ccccc1[N+](=O)[O-] (configuration not stated) | inactive: -13.3%
COC(=O)c1ccc2c(c1)C(=O)/C(=C/c1ccc(O)cc1)O2 | inactive: -13.7%

Structure (SMILES) | growth rescue (activation)
CCOC(=O)c1ccc(NC(=O)c2nsc3ccccc23)cc1 | inactive: 0.307%
Cc1ccccc1C(=O)NC=C1C(=O)OC(C)(C)OC1=O | inactive: -22.4%
NS(=O)(=O)c1ccc(Cl)c(S(N)(=O)=O)c1 | inactive: -2.43%
O=C(C1CCC(=O)N(C2CC2)C1)N1CCN(c2cccc(Cl)c2)CC1 (configuration not stated) | inactive: 8.11%
Cc1cc(F)cc(-c2cc(C(=O)NCc3ccccn3)[nH]n2)c1 | inactive: 6.38%
CCN1C(=O)C2(C(C(=O)c3ccc(C)o3)=C(O)C(=O)N2CCCN(C)C)c2ccccc21 (configuration not stated) | inactive: 2.57%
COc1ccc(-c2nc(NC(=O)c3nc4nccc(C)n4n3)sc2C)cc1 | inactive: 12.6%
N#Cc1ccc(C(=O)Nc2cccc(S(=O)(=O)NC3=NCCC3)c2)cc1 | inactive: 0.722%
CCNC(=O)C1(C)CCCN(Cc2ccc(Oc3ccccc3)cc2)C1 (configuration not stated) | inactive: 12.6%
Cc1ccc(C)c(-n2c(N)c(C(N)=O)sc2=S)c1 | inactive: 13.7%
COc1ccc(C(=O)N2CCc3cc(OC)c(OC)cc3C2c2ccc(OC)c(OC)c2)cc1 (configuration not stated) | inactive: -2.68%
COc1ccc(C(=O)On2c(-c3ccc(Br)cc3)nc3ccccc3c2=O)cc1 | inactive: -29.4%
O=C(c1cccs1)N1CCN(Cc2ccccc2[N+](=O)[O-])CC1 | inactive: 2.38%
Cc1ccc(C(=O)Nc2cc3cc(Cl)ccc3oc2=O)cc1 | inactive: 9.53%
CCc1nc2c(OCc3ccc(F)cc3)cccn2c1N(C)C(=O)C(C)C | inactive: 2.1%
CC(OC(=O)c1cnc2ccccc2n1)c1ccccc1Cl (configuration not stated) | inactive: 11.8%
COc1ccc(C(C(=O)NCc2ccccc2)N(C(=O)c2snc(C(N)=O)c2N)c2ccccc2OC)cc1 (configuration not stated) | inactive: -28%
CCOC(=O)Cn1cc(/C=C(/C#N)C(=O)NC(C)C)c2ccccc21 | inactive: 10%
Cc1ccnc(SCC(=O)Nc2cccc(S(=O)(=O)N3CCOCC3)c2)n1 | inactive: -12.9%
CC1CCCCN1C(=O)CSc1nnc(-c2ccccc2O)o1 (configuration not stated) | inactive: 37.5%
COCCN1CCN(C(=O)C2CCC(=O)N(CCc3ccc(Cl)cc3)C2)CC1 (configuration not stated) | inactive: 5.71%
CCc1ccccc1-n1c(SCC(=O)N2CCCC2)nc2[nH]ncc2c1=O | inactive: -7.71%
COc1ccc(NS(=O)(=O)c2cccc(C(=O)N/N=C/c3ccc4c(c3)OCCO4)c2)cc1 | inactive: -5.99%

Structure (SMILES) | growth rescue (activation)
O=C(Nc1ccccc1N1CCOCC1)c1cccc(NS(=O)(=O)c2ccc(F)c(F)c2)c1 | inactive: -0.631%
COC(=O)C(CSCc1ccccc1)NC(=O)CSc1nc(N)cc(=O)[nH]1 (configuration not stated) | inactive: 7.41%
COc1ccccc1NC(=O)c1cc([N+](=O)[O-])ccc1NCCN1C(=O)CCC1=O | inactive: 11.1%
CSc1ccccc1NC(=O)CN(c1ccccc1)S(=O)(=O)N(C)C | inactive: -9.71%
CC(C)(C)c1nnc2sc(SCC(O)=C(C#N)c3nc4ccccc4[nH]3)nn2c1=O | inactive: 2.04%
CN(CC(=O)NCc1ccc(F)cc1)Cc1ccc(Br)cc1 | inactive: -6.93%
CNS(=O)(=O)c1ccc2c(c1)NC(=O)C1CCCN21 (configuration not stated) | inactive: -22.8%
O=C(COC(=O)c1ccccc1Br)NCC1CCCCC1 | inactive: -5.98%
COc1ccc(C(=O)/C=C/Nc2ccc(S(=O)(=O)Nc3cccc(C(C)=O)c3)cc2)cc1 | inactive: 13.2%
CC(C)(C)CNC(=O)C1(C)CCN1C(=O)Cc1ccc(C(C)(C)C)cc1 (configuration not stated) | inactive: -6.28%
CCC(=O)N1CCc2cc(Br)cc(S(=O)(=O)NCCCN(CC)Cc3ccccc3)c21 | inactive: -5.69%
CC(C)Nc1nnc(SC(C)C(=O)NCc2ccc3c(c2)OCO3)s1 (configuration not stated) | inactive: -3.88%
CN(C(=O)COC(=O)c1ccc(S(=O)(=O)N2CCOCC2)cc1)c1ccccc1 | inactive: 5.87%
Cc1ccccc1OCc1nnc(SCC(=O)Nc2ccc(N3CCOCC3)cc2)n1C | inactive: -5.1%
O=C(c1cccs1)N1CCN(C(=O)c2cn(-c3ccccc3)nc2-c2ccccc2)CC1 | inactive: 8.62%
Cc1oc2c(cc(NS(=O)(=O)c3ccc(F)cc3)c3ccccc32)c1C(=O)O | inactive: -11.6%
C=CCN1C(=O)c2ccccc2C1(O)Cc1ccccc1 (configuration not stated) | inactive: 6.25%
CC(=O)c1c(C)oc2ccc(NS(=O)(=O)c3ccccc3)cc12 | inactive: 11.9%
O=C(Nc1ccc(F)cc1)C1CCCO1 (configuration not stated) | inactive: 7.18%
Cc1cccc(OCc2nnc(SC(C)C(=O)O)n2Cc2ccccc2)c1 (configuration not stated) | inactive: 11%
Cc1ccc(N(C(=O)Cc2cccs2)C(C(=O)NC2CCCCC2)c2ccccn2)cc1C (configuration not stated) | inactive: 5.67%
